Among the data in patent US20230279151A1 (Sanofi, published 2023) are Kd, koff and kon values, retold here.

Substitutions are numbered along the chain they refer to.

Assay [1] has as its target T1, human IL4 (IL004, Millipore) (human, UniProt P05112 25-153).
T1 construct: Commercial recombinant antigen; also called Antigen IL4
T1 sequence (looked up): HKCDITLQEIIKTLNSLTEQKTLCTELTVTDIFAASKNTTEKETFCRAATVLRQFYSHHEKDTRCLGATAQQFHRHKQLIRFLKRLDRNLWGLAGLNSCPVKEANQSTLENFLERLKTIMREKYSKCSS
As to the kind of experiment: SPR, Biacore 3000, antibody captured by anti-human Fc, IL4 as analyte; second block of the table (presumably ExpiCHO expression). As for the experimental part:
(§1) Binding of antigens to the antibody constructs was measured using surface plasmon resonance (SPR) with a BlAcore 3000 instrument (GE Healthcare) with HBS-EP buffer (GE Healthcare). As antigens, human IL4 (IL004, Millipore) and human IL13 (IL012, Millipore) were used. The antihuman Fc capture antibody (human antibody capture kit, GE Life Sciences) was immobilized via primary amine groups (11000 RU) on a research grade CM5 chip (GE Life Sciences) using standard procedures. […] The tested antibody constructs were […] and injected at 100 nM concentration for 240 sec with a dissociation time of 300 sec at a flow rate of 30 µL/min. For human IL4 and IL13, a dilution series of 0.1 nM to 3 nM and 0.8 nM to 25 nM, respectively were used. Chip surfaces were regenerated with 2 min injects of the regeneration buffer provided with the capture kit. Sensorgrams were double-referenced with a blank chip surface and HBS-EP buffer blanks. Data analysis was performed using the BIAevaluation software v4.1.
(§2) The binding of the different bispecific Tandem-IgG constructs expressed in HEK293-FS or ExpiCHO cells as well as in vivo processed Tandem-IgG from the co-transfection with Furin variants was measured via surface plasmon resonance (SPR). The binding to the two human antigens IL4 and IL13 were compared to the binding characteristics of the individual monoclonal antibodies. […] In contrast, specific binding to IL13 was only detectable for in vivo processed Tandem-IgGs as well as the Tandem-lgG control comprising two LCs. […] Thus, processing of the linker sequence connecting the VLb (VL against IL13) at the inner position of the Tandem-lgG with the CK domain of the IL4 binding Fab at the outer position is required for a functional IL13 binding site. In vivo processing can thereby be mediated via endogenously expressed proteases or via co-transfected Furin variants.

Assay [2] deals with T1, human IL4 (IL004, Millipore). As to the kind of experiment: SPR, Biacore 3000, antibody captured by anti-human Fc, IL4 as analyte; HEK293-FS expression. The procedure: as §1, §2
In general terms: In SPR one partner is held on a chip, and binding of the other changes the refractive index at the surface.

B1: sLC-Tandem-(anti-IL4xanti-IL13)-PCL1-huIgG1 (bispecific antibody)
light: DIQMTQSPASLSVSVGDTITLTCHASQNIDVWLSWFQQKPGNIPKLLIYKASNLHTGVPSRFSGSGSGTGFTLTISSLQPEDIATYYCQQAHSYPFTFGGGTKLEIKRTVAAPSVFIFPPSDEQLKSGTASVVCLLNNFYPREAKVQWKVDNALQSGNSQESVTEQDSKDSTYSLSSTLTLSKADYEKHKVYACEVTHQGLSSPVTKSFNRGECRRKRGGGGSGGGGSGGGGSRRKRDIVLTQSPASLAVSLGQRATISCRASESVDSYGQSYMHWYQQKAGQPPKLLIYLASNLESGVPARFSGSGSRTDFTLTIDPVQAEDAATYYCQQNAEDSRTFGGGTKLEIKRTVAAPSVFIFPPSDEQLKSGTASVVCLLNNFYPREAKVQWKVDNALQSGNSQESVTEQDSKDSTYSLSSTLTLSKADYEKHKVYACEVTHQGLSSPVTKSFNRGEC
heavy: QVQLQQSGPELVKPGASVKISCKASGYSFTSYWIHWIKQRPGQGLEWIGMIDPSDGETRLNQRFQGRATLTVDESTSTAYMQLRSPTSEDSAVYYCTRLKEYGNYDSFYFDVWGAGTLVTVSSASTKGPSVFPLAPSSKSTSGGTAALGCLVKDYFPEPVTVSWNSGALTSGVHTFPAVLQSSGLYSLSSVVTVPSSSLGTQTYICNVNHKPSNTKVDKKVEPKSCDKTHTGGGGSGGGGSGGGGSEVQLKESGPGLVAPGGSLSITCTVSGFSLTDSSINWVRQPPGKGLEWLGMIWGDGRIDYADALKSRLSISKDSSKSQVFLEMTSLRTDDTATYYCARDGYFPYAMDFWGQGTSVTVSS[sequence of human IgG1 constant region not given]
notes: Not processed in vivo without furin co-expression, in either HEK293-FS or ExpiCHO cells, so the single light chain was intact in the assay; also called sLC-PCL1-Tandem-IgG; sLC PCL1 Tandem-IgG
One may read the Kd as the concentration at which binding is half-saturated. Low readings indicate a tighter complex, high ones a looser complex. The koff is a measure of how fast the partners let go of each other. Low readings indicate slow dissociation, high ones fast dissociation. The term kon denotes the rate constant with which the complex forms. Low values mean slow association, high ones fast association. Take B1: in assay [1], the Kd is 1.42 pM, the koff is 0.000161 s⁻¹ and the kon came out at 1.13e+08 M⁻¹ s⁻¹. Moreover, in assay [2], the Kd was found to be 0.901 pM and the koff came to 0.000379 s⁻¹.

B2: sLC-Tandem-(anti-IL4xanti-IL13)-ΔPCL1-huIgG1 (bispecific antibody)
light: B1 light with R216Q, K217Q, R235Q, K236Q
heavy: B1 heavy
notes: The recognition site is deleted (RQQR); The construct was not processed, so the single light chain was intact in the assay; also called sLC deltaPCL Tandem-IgG
For B2, in assay [1], the Kd stood at 2.75 pM, the koff worked out at 0.000149 s⁻¹ and the kon came to 5.43e+07 M⁻¹ s⁻¹. In assay [2], this molecule showed a Kd of 2.29 pM, a koff of 0.000155 s⁻¹ and a kon of 6.75e+07 M⁻¹ s⁻¹.
